Source: PubChem BioAssay (NCI)
Several values for one entry are separate records, joined by “and”; a condition that tells them apart may be missing. Equal values may be shown once.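 These data come from cells grown in 96-well plates and exposed to compound for 48 hours at five concentrations. Abbreviation: GI50, concentration required for 50% inhibition of growth. TGI denotes the concentration required for complete inhibition of growth.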

Tested on: NCI-H322M lung
Test: NCI-60 cell line screen, 48 h

| Compound | TGI | GI50 |
| --- | --- | --- |
| COc1cccc(C(=O)O)c1Cc1cccc2ccccc12 | > 100 µM | – |
| NC(N)=NS(=O)(=O)c1ccc(NC(=O)c2ccc(Cl)c3c(Nc4ccc(S(=O)(=O)N=C(N)N)cc4)c4ccccc4nc23)cc1 | > 100 µM | – |
| CCN(CCc1ccc(F)cc1)c1ccc(CO)c(Cl)c1 | 25.4 µM | 12 µM |
| COc1cc2c(C#N)n3c(c2cc1OC)C(=O)C(c1ccccc1)Oc1ccccc1-3 (stereo unspecified) | > 100 µM | > 100 µM |
| CC(=O)c1ccc(NCn2nc(-c3ccccc3O)oc2=S)cc1 | > 100 µM | > 100 µM |
| C[C@]1(O)CC(=O)[C@]2(O)C3=C(C=C[C@]2(O)C1)C(=O)c1c(O)cccc1C3=O | 27.2 µM | 14 µM |
| COc1ccc(-n2nc(C)c3c(Nc4ccc(NC(=O)Nc5cc(C(F)(F)F)ccc5F)cc4)ncnc32)cc1 | 8.6 µM | 2.55 µM |
| COc1ccc(C(F)(F)F)cc1NC(=O)O/N=C(/Cl)C(C)C | 34.2 µM | – |
| O=S(=O)(O)c1cc(O)c2c(O)c(N=Nc3ccc(/C=C/c4ccc(N=Nc5c(S(=O)(=O)O)cc6cc(S(=O)(=O)O)cc(O)c6c5O)cc4S(=O)(=O)O)c(S(=O)(=O)O)c3)c(S(=O)(=O)O)cc2c1 | > 100 µM | – |
| O=S(O)CCCCSSCCCCS(=O)(O)=S | > 100 µM | – |
| NCC(=O)OCN1C(=O)C2C3C=CC(C2C1=O)C1C2C(=O)N(COC(=O)CN)C(=O)C2C31 (stereo unspecified) | > 100 µM | – |
| CN1CCN(c2ccc(NC3=C(Cl)C(=O)c4ncccc4C3=O)cc2C(F)(F)F)CC1 | 28.6 µM | 15.3 µM |
| CN(C)c1ncc(-c2c[nH]c3ccccc23)nc1-c1c[nH]c2ccccc12 | 12.9 µM | – |
| CC(C)(C)c1cc2c(OP(c3ccccc3)c3ccccc3)c(c1)Cc1cc(C(C)(C)C)cc(c1OP(c1ccccc1)c1ccccc1)Cc1cc(C(C)(C)C)cc(c1OP(c1ccccc1)c1ccccc1)Cc1cc(C(C)(C)C)cc(c1OP(c1ccccc1)c1ccccc1)C2 | > 50 µM | > 50 µM |
| CNNC1=NS(=O)(=O)c2cc(C(=O)OC)c(Cl)cc2S1 | > 10 µM | – |
| O=c1cc2oc3ccc4ccccc4c3cc-2c(=O)[nH]1 | 28.5 µM | – |
| CC(=O)OCC1OC(Sc2nc(-c3ccc(C)cc3)c(C#N)c(=O)n2C2OC(COC(C)=O)C(OC(C)=O)C(OC(C)=O)C2OC(C)=O)C(OC(C)=O)C(OC(C)=O)C1OC(C)=O (stereo unspecified) | > 100 µM | – |
| Cn1cc(C=C(C#N)C#N)c(=O)n(C)c1=O | > 100 µM | – |
| COc1ccc(CNCCCN2C(=O)c3ccc4c5c(ccc(c35)C2=O)C(=O)N(CCCNCCCCNCCCN)C4=O)c(OC)c1OC | 11.8 µM | 2.15 µM |
| CCCCC/C=C1\CCC(CN2CCOCC2)C1=O (stereo unspecified) | 37 µM | – |
| O=c1c2ccccc2c(C=NCCNCCO)c2oc3ccccc3n12 | 8.92 µM | 2.87 µM |
| N[C@H]1CCc2c1nc1c(c2-c2ccccc2)CC[C@@H]1N | > 100 µM | – |

| Compound | TGI | GI50 |
| --- | --- | --- |
| COC(=O)C1=C(C(=O)OC)C2(/N=C(\Nc3ccccc3)c3ccccc3)N(c3ccc(OC)cc3)CC(c3ccccc3)N2O1 (stereo unspecified) | > 100 µM | – |
| CCN(CC)CCNc1ccc(CO)c2sc3ccccc3c(=O)c12 | 23.1 µM [middle of 4 runs] | 3.24 µM and 9.61 µM |
| O=C(O/N=C1/CCC/C1=C\c1ccccc1)c1ccc(Cl)cc1 | > 100 µM | – |
| COc1ccc(-c2c(N)n(-c3cc(OC)cc(OC)c3)c(=O)c3cc([N+](=O)[O-])ccc23)cc1 | > 100 µM | – |
| C=C(C)[C@@H]1CC[C@]2(C)[C@H](CC=C3[C@@H]4CC(C)(C)CC[C@]4(C(=O)OC)CC[C@]32C)[C@@]1(C)CC/C(N)=N/O | 6.14 µM | 2.26 µM |
| Cc1ccc2c(c1)C(=O)C1(C2)Cc2ccc(C)cc2C1=O | > 100 µM | – |
| COc1cc(C(C)c2cc3c(cc2OCCOCCOc2cc4c(cc2C(C)c2cc(OC)c(OC)c(OC)c2)OCO4)OCO3)cc(OC)c1OC (stereo unspecified) | > 10 µM | – |
| O=C(O)C1(C(=O)O)CCN(S(=O)(=O)c2ccccc2)CC1 | > 100 µM | – |
| CCOc1ccccc1N=C(NC(=O)CC)SC | > 100 µM | > 100 µM |
| COc1ccccc1OCc1nnc(SCC(=O)O)n1-c1ccccc1 | > 100 µM | – |
| COC(=O)C1=C(O)C(C(=O)OC)[C@@]2(O)[C@@H](C(=O)OC)C(c3ccc(OC(=O)/C(=C/c4ccccc4)c4ccccc4)cc3)C[C@@H]1[C@@H]2C(=O)OC (stereo partly specified) | > 100 µM | – |
| CCCC/C=C1\CCC(CN2CCOCC2)C1=O (stereo unspecified) | 30.8 µM | – |
| CCOC(=O)c1c(SCC#N)n(-c2ccccc2)c(=S)n(-c2ccccc2)c1=O | > 100 µM | – |
| O=C(Cc1ccccc1)NN1C(=O)C(Cl)C1c1cc(Br)cc(Br)c1O (stereo unspecified) | 46.8 µM | – |
| COc1ccc2c3c([nH]c2c1[N+](=O)[O-])C(C)N(C(=O)/C=C/c1ccccc1)CC3 (stereo unspecified) | 57.4 µM | – |
| CCCN(CCC)C(=O)Cc1c2n(c3ccccc13)CCCc1ccccc1-2 | 28.4 µM | – |
| O=C(Oc1ccccc1Cl)c1cccnc1Nc1ccnc(C(F)(F)F)c1 | 31.5 µM | 16.2 µM |
| COC(=O)/C1=C/C2CC(/C=C(/c3ccccc3)C(=O)O1)C2 | > 100 µM | – |
| CC(C)(C)c1ccc(NC(=O)c2cc(=O)c3ccccc3[nH]2)c(C(C)(C)C)c1O | 26.8 µM | 13.2 µM |
| CCc1nc2cc(/C=C/C(=O)NO)c(F)cc2c(=O)n1CCc1ccccc1 | 12.1 µM | 0.88 µM |
| CCOC(=O)NC(=O)c1cn(-c2ccc(CCOC(=O)CCCCCCCCC(=O)OCCc3ccc(-n4cc(C(=O)NC(=O)OCC)c(=O)[nH]c4=O)cc3)cc2)c(=O)[nH]c1=O | > 100 µM | – |
| Cc1ccc(NCCN(C)CC(C)O)c2c(=O)c3ccc(Cl)cc3sc12 (stereo unspecified) | > 100 µM | 3 µM |

| Compound | TGI | GI50 |
| --- | --- | --- |
| CC1(C)C2CCC1(C)C(NC(=O)CCN1CCOCC1)C2 (stereo unspecified) | > 100 µM | – |
| CCCCCCCCCCCCCC/C(=C/OCC[N+](C)(C)C)OC(C)=O (tested in a mixture with another compound) | 14.2 µM | – |
| COc1cc2c(cc1OC)[C@]1(O)C(=O)c3ccc4c(c3O[C@@H]1CO2)C[C@H](C(C)(C)O)O4 | > 100 µM | – |
| O=c1[nH]nc2c3n[nH]c(=O)n3c3ccccc3n12 | > 100 µM | – |
| NC(Cc1ccc2oc3cc(=O)c4ccccc4c-3nc2c1)C(=O)O (stereo unspecified) | 49.9 µM | – |
| CCOP(=O)(C/C(=N/NC(C)(C)C)C(=O)Nc1nc2ccc(C)cc2s1)OCC | > 100 µM | – |
| Oc1ccc2ccccc2c1N=Nc1ccc(N=Nc2ccccc2)cc1 | > 100 µM | – |
| CC1=CC(=O)c2cccc(O)c2C1=O | 32.3 µM | – |
| COC(=O)c1ccc(NCc2cc(O)c3ccccc3c2O)cc1 | 26.2 µM | – |
| C/C=C1/CN2CC[C@@H]3c4ccccc4N4[C@H](C(=O)OC)[C@H]1C[C@H]2[C@]34/C=C/C1=COC[C@@H]2[C@H]1C[C@H]1c3c(c4ccccc4n3C)C[C@@H]2N1C | 7.69 µM | – |
| CCC(=O)[O-].CCC(=O)[O-].N.N.N.N.[Co+3].[O-][Cl+3]([O-])([O-])[O-] | > 100 µM | > 100 µM |
| C[C@@H]1O[C@@H]2OCC[C@@H]2C2=C1C(=O)c1ccccc1C2=O | 29 µM | – |
| CC1(Br)C(=O)NC(=O)N([C@H]2C[C@H](O)[C@@H](CO)O2)C1N=[N+]=[N-] (stereo partly specified) | > 100 µM | – |
| CCC1N2CCCCC2[C@@H]2c3[nH]c4ccccc4c3CCN12 (stereo partly specified) | > 100 µM | – |
| COc1cccc(N2CCc3c(C)c(C#N)c4nc5ccccc5n4c32)c1 | > 100 µM | – |
| O=C(/C=C/c1ccc(O)c(O)c1)Oc1ccccc1 | 76.1 µM | – |
| CN1NC(c2ccccc2)=C(C#N)C(=O)CC1c1ccccc1Cl (stereo unspecified) | > 100 µM | – |
| c1ccc(SCCP(CCP(c2ccccc2)c2ccccc2)c2ccccc2)cc1 (stereo unspecified) | > 100 µM | – |
| COc1ccc(/C=C/c2cc(=O)cc(/C=C/c3ccc(OC)c(O)c3)o2)cc1O | 12.6 µM | – |
| Nc1nc(SCCC/C=C/B(O)O)nc2c1ncn2C1OC(CO)C(O)C1O (stereo unspecified) | > 243 µM | – |
